This is one part of the list. These are enrichments in a pooled selection; single values are uncertain. Scores sum up all selected molecules that hold the word; the word was not tested alone.
Test system: IMP3 RRM1-2
Test: 6-mer SELEX enrichment z-score vs GST control; IMP3 is the RNA-binding protein IGF2BP3; higher = more enriched by binding
Settings: construct: RRM1-2 (1-163); SELEX round: R2
Procedure: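 SELEX-seq with GST-tagged IMP3 RRM1-2 (Met1-Asn163) and an N40 RNA pool, round 2. 6-mer enrichment z-score normalised to GST SELEX. RNA written as DNA (T = U).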

Chain of IMP3 RRM1-2 (chain, as listed by the source): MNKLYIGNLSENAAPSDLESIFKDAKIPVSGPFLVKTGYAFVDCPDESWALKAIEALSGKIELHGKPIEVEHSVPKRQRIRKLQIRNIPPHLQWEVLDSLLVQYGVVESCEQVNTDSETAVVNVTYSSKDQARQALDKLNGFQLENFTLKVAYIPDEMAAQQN

| Sequence | 6-mer SELEX enrichment z-score |
| --- | --- |
| AGTGAA | -0.844 |
| TCTGAT | 0.096 |
| GGTCTG | 0.321 |
| AGTTCA | 0.653 |
| TGCTAC | 0.128 |
| GGTGCG | 0.226 |
| ATCTGA | -0.295 |
| GTACGT | -0.027 |
| TTGTGA | -0.164 |
| GCTACG | 0.007 |
| CTCTTA | 0.214 |
| GCTCGT | 0.344 |
| TGTACC | -0.074 |
| GGCATA | 0.435 |
| CGGAAC | -0.841 |
| TGTCGG | 0.568 |
| ATGGAT | -0.128 |
| CGAGAG | -0.662 |
| GCTTTG | 0.293 |
| CAAAGG | -0.52 |

| Sequence | 6-mer SELEX enrichment z-score |
| --- | --- |
| TATACA | 0.596 |
| TCATGT | 0.865 |
| GATATA | -0.416 |
| CACCTC | 0.213 |
| GACCGG | -1.01 |
| TGTCCG | -0.179 |
| AATTGC | -0.377 |
| CGACAC | 0.289 |
| CCGCGG | -0.154 |
| TTTCCT | 0.183 |
| ACCATA | 0.814 |
| ATACAA | 0.862 |
| ATCTCT | 0.352 |
| CGGGTA | 0.103 |
| AGCTAC | 0.206 |
| GTTTGC | 0.282 |
| AATGGG | -0.29 |
| GGACGG | -0.541 |
| CGGCAT | 0.557 |
| ATCGCT | 0.123 |
